Laboratory results taken from paper PMC12102759.

B1: BCAR1 peptide 629-644 (Breast cancer anti-estrogen resistance protein 1), 16-mer library wild type / YES SH3 (YES1 SH3 domain, residues 90-152) (parent)
chain 1: TSSIQSRPLPSPPKFT
chain 2: TGGVTIFVALYDYEARTTEDLSFKKGERFQIINNTEGDWWEARSIATGKNGYIPSNYVAPADS

Variants of: B1
Assay: proteomic peptide phage display deep mutational scan (ProP-PD DMS): M13 P8 16-mer library selected against immobilised GST-tagged bait for four days (rounds), NGS of the eluted pools per day and pseudo-replica
Conditions: with YES SH3 (YES1 SH3 domain, residues 90-152); bait immobilised on MaxiSorp plates (10 µg), library pre-cleared on GST, 2 h binding at 4 °C, five washes; one round per day, days 1-4; value from days 2 and 3; keep out of graded; scale: average fractional NGS count over selection days 2 and 3

Screen value of substitutions, site by site:
chain 1 P13: Q 0.000472 | E 2e-05 | Y 0.000958 | N 8.14e-05 | F 0.000189 | S 0.000133 | A 3.78e-05 | M 0.000165 | I 0.00117 | D 0.000226 | V 6.19e-05 | G 0.000405
chain 1 Q5: N 0.00109 | L 0.000125 | K 0 | F 3.7e-05 | H 0.000639 | V 2.74e-05 | S 0.00014 | T 0.000144 | P 0.000469 | A 0.000325
chain 1 P10: F 0 | M 0 | V 6.49e-05
chain 1 P8: Y 8.55e-05 | S 6e-05 | I 0.000256 | V 0.000191 | N 6.15e-05 | W 8.63e-05 | G 8.77e-05 | R 4.42e-05 | E 2.72e-05 | A 3.03e-05 | T 5.8e-05
chain 1 S2: R 4.16e-05 | G 0.00103 | Y 3.35e-05 | L 3.79e-05 | T 0.000912 | M 4.6e-05 | E 0.000199
chain 1 P12: W 0.000182 | H 0.000281 | N 8.85e-05 | Y 0.00149 | I 4.26e-05 | M 2.97e-05 | F 0.000389 | T 0.00108 | S 0.000259 | D 9.43e-06 | V 5.53e-05 | K 0.000118 | L 0.00319 | E 0.000119
chain 1 I4: T 0.000484 | V 7.44e-05 | E 0.000192 | Q 0.000112 | D 5.2e-05 | A 0.000219 | H 0.000121 | L 6.99e-05 | G 0.000179 | S 0.000505 | P 0.00083 | R 1.67e-05 | W 0.00024 | M 2.1e-05
chain 1 S3: E 0 | L 0.00166 | T 0.000168 | W 6.21e-05 | I 0.00355 | V 0.000264 | M 0.000163 | A 0.000105 | F 0.000263 | Q 0.000263
chain 1 L9: D 0 | V 5.63e-05 | F 0 | M 0.000161 | Y 0 | Q 0 | T 0 | K 8.17e-06 | P 0 | N 0
chain 1 K14: V 0.00288 | R 0.000435 | I 0.00345 | Q 0.000236 | Y 0.00118 | S 0.00269 | M 0.00386 | G 0.000578 | A 0.000632 | T 0.00281 | H 0.00346 | F 0.000323
chain 1 S11: D 0.000524 | F 0.00018 | T 0.000421 | V 0.000612 | K 0.000864 | M 7.28e-05 | Q 2.53e-05 | I 0.000138 | P 0.000188 | H 0.000319 | R 2.92e-05 | N 0.000246
chain 1 F15: G 0.000171 | H 8.83e-05 | D 0 | S 0 | T 8.17e-06 | I 0.000305 | A 9.69e-05 | P 0.00069 | R 7.47e-05 | N 5.84e-05
chain 1 R7: G 0.000124 | V 1.73e-05 | S 2.98e-05 | W 0.000412 | Q 3.5e-05 | T 0.000476 | D 0.000172 | Y 2.97e-05 | N 9.51e-06 | F 7.67e-05 | I 0 | L 5.29e-05 | H 0.000407 | A 0.000207 | M 0.000816 | P 0 | K 0.000753
chain 1 S6: M 0.00134 | P 0.000122 | E 0.000653 | A 5.09e-05 | R 0 | F 2.52e-05 | H 7.17e-05 | K 7.9e-05 | V 0.000179 | Y 0.000829 | T 5.92e-05
chain 1 T1: M 7.57e-05 | G 0 | L 1.54e-05 | S 7.16e-05 | Q 7.31e-05 | E 5.93e-05 | I 1.25e-05 | W 8.16e-05 | P 0 | Y 0.000118 | R 2.13e-05 | D 2.54e-05 | V 0.000586 | K 0
